# Laboratory results taken from the supplement of paper PMC12632987.
# Whole data set: some 4,500 sequences, median “median log2 fold change of GCK-ALFA target abundance (FLAG IP / Myc IP barcode read proportion)” near 0.078, cut for the lowest 2% near -0.6. This is one part of the list.
# B1: GBRAP_125_3077 (protein)
# chain: PTEEELADLATVLRALGYSDADVEEAVAIAAASSLKQTLVAIMLAEGAEEAADLIEKLTEAEAAEVLRRVAAALAANPGLSKEEVIALIRREAEEALAAA
# B2: GBRAP_52_6276 (protein)
# chain: MEEEAKKLAEEFIEVALNGSEEEIREFAKELVENYSQELIAEVLKIVVEMSKELNAEEIERLLEAFLILELELDEAGKDTLPAEDAAAELAKLHEEKLKE
# B3: GBRAP_184_5136 (protein)
# chain: KTLHKFIEAKTVEEAIEKAKKAFEEAKAAGEKLTLFIDAEGLSVEEIEKLIKEVVKLAKEAGLEDAQIILVVEADEEEADKIIKIADEYGVKVVVALEEE
# B4: GBRAP_52_6016 (protein)
# chain: MRERLEAFVDEVLALVRAGREEEARARIAELVASLDEEELELLIEVIARRAAEAAPEDQEAVWRLAEMLAEEMERAGVDEALADELEARVAAALYDAEQR
# B5: GBRAP_14_3867 (protein)
# chain: KEKALEVVNKAIEDMREELIKMFPDKKELIDKVAEEIKKYAEEVFKKKENIEEAMEEIREYALKKVEEAFKDLPPEDRAAALTIVDNEFLEADLEIEELS
# B6: GBRAP_125_3072 (protein)
# chain: ARAALLEDLAALARALGLSEDEVEELVALAAASSLRQALIALLLAEGAEEAADAVAELTEEQAAAVLRELRAELEANPDLTKEEVVARLLELARKARAEA
# B7: GBRAP_160_4658 (protein)
# chain: SPEIEELKKRIEEIFEEAKEMVKGETHEQRVAIARVAVGDVVLELSESPLVSEEAEDEVAKIGDALVAELEANPDFTDEEVEALIDKALEEVLKVLEKYS
# B8: GBRAP_128_3393 (protein)
# chain: SQEELLKEALKLIDEITKADLETARELTEKLMELFGKLNLEEQEKVVDYFESKLPELTAEKLDVVADVLREKRPELDPEGAALVNGLEVAALNEAEEKEE
# B9: GBRAP_122_2947 (protein)
# chain: SETREELEELVERMVEALDAGDDEELEALAEELVERFREISPEEAREAVERLIERVKDDEEKLERALKALLKAFYKNEPLTPAQEAAADVVAEEFDRLSE
# B10: GBRAP_160_4526 (protein)
# chain: SEYLEEVEKELRETAERAIELVKGESAEQRAVIVSMEFGSFAMELAEDERASDEEVDIVIDEEDKIVATILANPDLTDEEIAALIRESVERIIERLRKLY
# B11: GBRAP_160_4844 (protein)
# chain: KEKLEKVKKELEEARKFVLSLVDEVSVEDLAKFARAELGSTALYLLEEGYINEEAFDAILEEADELEEELLENKDASVEEIKKIIEEHVEKAIKEVEKLL
# B12: GBRAP_160_4630 (protein)
# chain: SEKLEKAKKAIEEARDFVLSLVPEVNVEQAAHALDTEFGSVILELREEGLISEETEDRMMEIVDKARKYMLENPDLTEEEIKELIEKTAEEIKKELEKEY
# B13: GBRAP_83_6911 (protein)
# chain: KEKVAVATTGDHIEEAVDAVIDLTKEEGYEVSLEILTTKEHREKVLEAVRRLAEEGIETEVLVLIKGATEEEAEELKEELEKIAKEYGVNIKIEVIILEE
# B14: GBRAP_128_3295 (protein)
# chain: SAAALRAAYRARLRALLGLTPEELRAATLALIKEAAAQGLEAVELFAEALEELAPEFTVEQLEAIAEALREAMKTVDPETAAVLADAESVALLEAEEKEE
# B15: GBRAP_11_2866 (protein)
# chain: NKEKLKEIAELLEKLIEVLERLLEEGVDNEELREEALKLAKEILELVKKYSDEADVKLAEYALELLEKAEEDPANAEQYVQEALAFARVLLGNVLLRIDE
# B16: GBRAP_78_6599 (protein)
# chain: EVEELVDEALELLGEAARLARALPPEVRDEVLDHLVDAASDLVESEEEEGTLEHLEEALKHVEAALELVRASDSPAAPELAAVLERAAKLLKEAIKLEKE
# B17: GBRAP_52_6060 (protein)
# chain: SKEEIEKLAKEIYEAIKAGDKEKALELLKEAIKKLSVEEITELLKLTAKLVAKGNDEQHELFVDIMDEFEDLMIEAGISEEEALIIVGDALATLAKEVAK
# B18: GBRAP_11_2717 (protein)
# chain: KKEKLEELAKRAEALAKEVEKLIKEGPKEEKLKALAKEVAALAKEAKAAGVDPAIVKTLEIAAEDLKEAIADPENVVEHLQNAAAALRVAAGQLLLEREE
# B19: GBRAP_160_4121 (protein)
# chain: NEKELKIAKDNAEDFEETLKEIEDLSNEEAGTLAIVTLGEAILDASELDGKFEEEEKFAEELEEELRKTAKEDPEKLKEVSKEKLEKARKYFEEKAKKLE
# Biological target: GABARAP, O95166
# Sequence (O95166 whole entry, the tested form may be a part): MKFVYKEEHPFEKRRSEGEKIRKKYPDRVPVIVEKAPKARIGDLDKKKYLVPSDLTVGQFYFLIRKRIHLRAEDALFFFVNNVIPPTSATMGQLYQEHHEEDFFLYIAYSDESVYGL
# Assay: median log2 fold change of GCK-ALFA target abundance (FLAG IP / Myc IP barcode read proportion) (log2 ratio); each designed protein is fused to an ALFA-tag nanobody in HEK293 cells to bring the named protein to FLAG-tagged glucokinase (GCK); Myc marks an untargeted standard; higher = target protein stabilised (more abundant)
# Conditions: target protein: 3xFLAG-MCP-GCK-ALFA reporter; HEK293 landing pad (RPLP)
# In short: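 An ALFA-nanobody-fused binder library was recombined into HEK293 landing-pad cells and induced with 2 μg mL^−1 doxycycline. Cells were transfected with a plasmid expressing a FLAG-tagged target and a Myc-tagged standard. After 48 h, lysates underwent anti-FLAG and anti-Myc immunoprecipitation, and circular RNA barcodes were reverse transcribed, amplified and sequenced. Target abundance is the per-binder median log2 ratio of FLAG to Myc barcode read proportions. Barcodes needed ≥10^−7 proportion in both replicates, binders ≥3 barcodes per replicate, and a 10^−6 pseudocount was added; the two replicates were pooled.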
row,Binder,median log2 fold change
1,B1,0.135
2,B2,0.0527
3,B3,0.225
4,B4,-0.044
5,B5,0.184
6,B6,0.146
7,B7,-0.00472
8,B8,0.135
9,B9,0.0267
10,B10,-0.317
11,B11,-0.0674
12,B12,-0.081
13,B13,-0.0177
14,B14,0.219
15,B15,-0.0773
16,B16,0.039
17,B17,-0.416
18,B18,0.249
19,B19,0.308
